From article PMC4336329 (PLoS ONE, 2015)
The whole screen tested about 310,000 compounds, of which about 2,200 (0.71%) showed an effect of 50% or more. The effect is printed as a negative number. This is one part of the list.

What follows are compounds tested against human ether-à-go-go-related gene (hERG) potassium channel (human, UniProt Q12809) (assay: primary screen, population patch clamp on CHO cells stably expressing hERG).
Sequence of human ether-à-go-go-related gene (hERG) potassium channel (Q12809 whole entry, looked up): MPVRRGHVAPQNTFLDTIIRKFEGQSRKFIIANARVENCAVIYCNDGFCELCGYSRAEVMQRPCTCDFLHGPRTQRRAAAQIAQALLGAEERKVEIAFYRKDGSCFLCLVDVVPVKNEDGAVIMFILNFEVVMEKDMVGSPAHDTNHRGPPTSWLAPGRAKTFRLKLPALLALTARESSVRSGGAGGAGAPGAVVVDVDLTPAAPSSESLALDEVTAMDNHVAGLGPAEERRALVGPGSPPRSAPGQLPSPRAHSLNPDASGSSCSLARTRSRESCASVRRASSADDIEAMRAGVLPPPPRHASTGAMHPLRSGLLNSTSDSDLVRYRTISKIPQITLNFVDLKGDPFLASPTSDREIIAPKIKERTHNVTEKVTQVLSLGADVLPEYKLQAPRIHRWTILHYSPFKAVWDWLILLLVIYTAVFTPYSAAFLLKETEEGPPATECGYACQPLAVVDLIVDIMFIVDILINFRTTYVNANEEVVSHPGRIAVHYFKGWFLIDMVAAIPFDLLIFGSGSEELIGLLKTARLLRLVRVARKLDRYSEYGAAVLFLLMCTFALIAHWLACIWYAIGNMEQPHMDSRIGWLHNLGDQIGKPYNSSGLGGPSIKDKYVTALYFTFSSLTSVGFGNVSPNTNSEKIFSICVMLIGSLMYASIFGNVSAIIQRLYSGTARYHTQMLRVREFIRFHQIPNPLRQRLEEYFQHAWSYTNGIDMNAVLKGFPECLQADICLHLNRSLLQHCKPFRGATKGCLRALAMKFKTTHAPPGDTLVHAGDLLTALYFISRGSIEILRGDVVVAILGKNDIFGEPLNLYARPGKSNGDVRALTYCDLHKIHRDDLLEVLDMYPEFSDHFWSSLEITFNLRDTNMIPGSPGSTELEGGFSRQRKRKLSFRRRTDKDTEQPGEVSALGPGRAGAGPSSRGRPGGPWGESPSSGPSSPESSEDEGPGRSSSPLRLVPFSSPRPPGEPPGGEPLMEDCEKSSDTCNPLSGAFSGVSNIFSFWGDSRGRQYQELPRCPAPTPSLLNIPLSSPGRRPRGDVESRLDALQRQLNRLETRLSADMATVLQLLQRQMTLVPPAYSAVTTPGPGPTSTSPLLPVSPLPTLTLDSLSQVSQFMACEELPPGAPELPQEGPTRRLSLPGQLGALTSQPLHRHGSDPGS

| SMILES | hERG current change (%, negative = inhibition) at 1uM |
| --- | --- |
| CSc1ccc(S(=O)(=O)N(CC(=O)NN=C2CCN(C)CC2)c2ccc(C)cc2)cc1 | 4.73% |
| CC1=C(C(=O)Nc2ccccc2)C(c2ccncc2)n2nnnc2N1 (centres unmarked) | -2.54% |
| Cc1c(C)c2c(OCC(=O)N3CCC(C(=O)NCC(C)C)CC3)cc3c(c2oc1=O)CCC(C)(C)O3 | -8.99% |
| CCOC(=O)N1CCN(C(=O)C2CCN(C(=O)c3cc4sccc4n3CC)CC2)CC1 | -0.112% |
| Cc1cc(C(=O)Cn2ncc(Cl)c(Cl)c2=O)c(C)n1CC(F)(F)F | 27.4% |
| COc1ccc(/C=N/NC(=O)C(=O)NCC2CCCO2)cc1 (centres unmarked) | -25.3% |
| Nc1c(-c2ccccc2)c(CN2CCOCC2)nn1-c1ccccc1 | 7.4% |
| Cc1ccc(NS(=O)(=O)c2cc3[nH]c(=O)c(=O)[nH]c3cc2C)c(C)c1 | 5.75% |
| COc1ccc(C(CNC(=O)Cc2ccc(Cl)c(Cl)c2)N(C)C)cc1 (centres unmarked) | -9.37% |
| Cc1nn(-c2ccccc2)c2c1C(c1c(C)[nH]c(C#N)c1C)C(C#N)=C(N)O2 (centres unmarked) | 9.09% |
| CCOC(=O)N1CCC(c2cc(=O)n3[nH]c(-c4ccccc4)cc3n2)CC1 | 13.6% |
| S=C(NCCCN1CCOCC1)NC1CC1 | 15.4% |
| COc1ccc2c(c1)CCc1c(C(=O)NC3CCCCC3)noc1-2 | 18.1% |
| CCOC(=O)c1cc(-c2ccccc2)sc1NC(=O)COC(=O)c1cccc(S(N)(=O)=O)c1 | 14% |
| N#CN1CCC(NS(=O)(=O)c2ccc(C(F)(F)F)cc2)C1 (centres unmarked) | 7.36% |
| CC(C)NS(=O)(=O)c1ccc(OCC(=O)Nc2ccc3c(c2)OCO3)c(Cl)c1 | 6.26% |
| Cc1cccc(-n2c(C)n[nH]c2=S)c1 | 1.26% |
| CC(CCc1ccccc1)NC(=O)COC(=O)c1ccc(F)cc1.CN(C)C=O (centres unmarked) | 18.1% |
| CCN(CC)c1ccc(C=Nc2ccc(C)cc2)c(O)c1 | 11.2% |
| CCc1cccc2c(C(=O)COC(=O)c3cnc(C)cn3)c[nH]c12 | 6.76% |
| CCOC(=O)CC(N)c1ccc2c(c1)OCO2.Cl (centres unmarked) | 13.1% |
| CCOc1ccccc1C1CC(=O)NC(SCC)=C1C#N (centres unmarked) | 13.1% |
| COc1ccc(NC(=O)c2sccc2C)cn1 | 2.92% |

| SMILES | hERG current change (%, negative = inhibition) at 1uM |
| --- | --- |
| COc1ccc(NS(=O)(=O)c2c(F)cc(F)c(Cl)c2F)cc1S(=O)(=O)N1CCCCC1 | 0.639% |
| CCOC(=O)/C(C#N)=N\Nc1ccc(S(=O)(=O)Nc2nc(C)cc(C)n2)cc1 | 10% |
| O=c1[nH]c(/C=C\c2ccc(O)cc2)nc(O)c1[N+](=O)[O-] | 12.3% |
| CC(O)C(NS(=O)(=O)c1ccc(Cl)cc1)C(=O)OCC(=O)Nc1cccnc1Cl (centres unmarked) | 12.1% |
| O=c1[nH]ncc2c3ccccc3n(Cc3cccc(Cl)c3)c12 | 7.24% |
| Nc1nc(C(F)(F)F)cc(=O)[nH]1 | 12.1% |
| CCOC(=O)c1c(N)n(CCN2CCOCC2)c2nc3ccccc3nc12 | -16.6% |
| CCOc1cc(N2CCOCC2)c(OCC)cc1NCC(=O)N1CCN(Cc2ccccc2)CC1.Cl | 9.92% |
| NS(=O)(=O)c1ccc(CCNC(=O)C2CCN(S(=O)(=O)c3ccc(Br)s3)CC2)cc1 | 18.7% |
| Cc1ccc(C(=O)N2CCN(Cc3ccc4c(c3)OCO4)CC2)cc1[N+](=O)[O-] | -2.15% |
| O=C(O)C1CC(O)CN1S(=O)(=O)c1ccc2ccccc2c1 (centres unmarked) | 6.2% |
| COc1ccc(Nc2nc(N3CCOCC3)nc(N3CCOCC3)n2)cc1 | 15.6% |
| O=C(O)c1ccccc1C(=O)c1ccc(Sc2ccc(Cl)cc2)c([N+](=O)[O-])c1 | 7.46% |
| CC1(C)CC(=O)C=C(NC2CCCCCCC2)C1 | -2.54% |
| CCCCNC(=O)NC(C(=O)OC)C12CC3CC(CC(C3)C1)C2 (centres unmarked) | -3.05% |
| N#C/C(=C/c1ccncc1)c1nc2ccccc2c(=O)[nH]1 | 13% |
| CCN(CC)S(=O)(=O)c1ccc(N2CCc3ccccc3C2)nc1 | 16% |
| Cc1ccc2sc(NNC(=O)c3ccc4c(c3)OCCO4)nc2c1C | 8.2% |
| COC(=O)c1c(NC(=O)COC(=O)c2ccc(NC(=O)CC#N)cc2)sc2c1CCCCC2 | 12% |
| COc1cccc(N2C(=O)N(c3ccccc3)C3CS(=O)(=O)CC32)c1 (centres unmarked) | 3.15% |
| O=C(OCC(=O)c1ccc(Cl)cc1Cl)c1cnccn1 | 8.89% |
| Cc1ccc(S(=O)(=O)NCCCC(=O)O)cc1 | 12.3% |
| Cc1cc(C)nc(SCC(=O)N/N=C/c2cccs2)n1 | 7.39% |

| SMILES | hERG current change (%, negative = inhibition) at 1uM |
| --- | --- |
| CCCN(CCC)S(=O)(=O)c1ccc(C(=O)Nc2c(C)n(C)n(-c3ccccc3)c2=O)cc1 | 2.98% |
| C[C@H](NC(=O)c1ccc(Cl)cc1)C(=O)NNC(=O)c1cccs1 | 27.7% |
| OCCN1CCN(Cc2cc(Cl)c3cccnc3c2O)CC1 | 18.5% |
| COc1ccccc1C(=O)Nc1nc(-c2ccc3c(c2)OCCO3)cs1 | 10.9% |
| COc1cc(NC(=O)C2CCCN(S(=O)(=O)c3cnc[nH]3)C2)cc(OC)c1 (centres unmarked) | 8.54% |
| CC(C)O.Cc1ccc(-c2cc(C(=O)O)n(-c3ccc(S(N)(=O)=O)cc3)n2)cc1 | 11.8% |
| COc1ccc(CCNCc2c(-c3ccccc3)n(C)c3ccccc23)cc1.O=C(O)C(=O)O | 6.8% |
| COc1ccc(Cl)cc1S(=O)(=O)NCc1ccncc1 | 15.2% |
| O=C(Nc1ccccc1F)NC1CCCCCCC1 | 1.1% |
| OCC(CO)(CO)N=Cc1c(O)ccc2ccccc12 | 1.91% |
| CCOC(=O)c1cnc2ccc(C(=O)OC)cc2c1NCCCN1CCOCC1 | -25.5% |
| O=C(CN1C(=O)NC2(CCc3ccccc32)C1=O)c1ccc(Br)cc1 (centres unmarked) | 9.51% |
| O=C(CN1C(=O)/C(=C2\SC(=S)N(C3CCS(=O)(=O)C3)C2=O)c2ccccc21)Nc1ccccc1 (centres unmarked) | 3.09% |
| CCOC(=O)c1ccc(NC(=O)Cn2ncc(Cl)c(Cl)c2=O)cc1 | 2.74% |
| Cc1cc(C)n(C(=O)c2ccc([N+](=O)[O-])cc2N)n1 | 23.1% |
| Cc1ccccc1N1CC(C(=O)Nc2ccc(S(=O)(=O)N3CCCCC3)cc2)CC1=O (centres unmarked) | 15.9% |
| CCn1c(SCC(=O)NCC2CCCO2)nnc1-c1ccccc1 (centres unmarked) | 4.6% |
| Cc1cccc(C)c1NC(=O)CN(C)C(C)C(=O)Nc1ccccc1-c1ccccc1 (centres unmarked) | 11.9% |
| COc1cccc2c1CCc1c-2nc2ccccc2c1C(=O)O | 6.53% |
| CC(NC(=O)COC(=O)/C=C/c1ccc2c(c1)OCO2)c1ccccc1 (centres unmarked) | -6.44% |
| CN1CCN(C(=O)c2cc3sccc3n2CC(=O)c2ccccc2)CC1 | -2.93% |
| Cc1cc(C(=O)NNC(=O)C2CCCC2)c(C)o1 | 15.7% |
| CC(=O)Nc1ccc(S(=O)(=O)NCc2cn3ccsc3n2)cc1 | 1.26% |

| SMILES | hERG current change (%, negative = inhibition) at 1uM |
| --- | --- |
| CCCCCCc1c(C)c2ccc(OCC(=O)N[C@@H](Cc3ccccc3)C(=O)O)cc2oc1=O | 14.3% |
| O=C(CSCc1c(Cl)cccc1Cl)Nc1ccccc1C(=O)N1CCOCC1 | 2.48% |
| CCCc1cc(=O)[nH]c(SCC(=O)NC(=O)OCC)n1 | 16.9% |
| Cc1ccc(NC(=O)c2ccc(OC(F)F)cc2)cc1S(=O)(=O)N(C)C | 9.55% |
| CC(C)c1ccc(N(C(=O)c2ccco2)C(C(=O)NC2CCCC2)c2cccnc2)cc1 (centres unmarked) | 3.2% |
| CCOC(=O)c1c(NC(=O)CSc2nnc3c(Cl)cc(Cl)cn23)sc2c1CCC2 | -0.828% |
| O=C1C=C(c2ccc(CO)cc2)C[C@@H](c2ccc3c(c2)OCO3)C1 | 6.43% |
| COc1ccc(CN2C(=O)c3ccccc3C2=O)cc1C(=O)Nc1ccc(C)cc1C | 4.18% |
| Cc1cc(C(=O)NC(C)CCC(C)C)c2ccccc2n1 (centres unmarked) | 25.5% |
| O=C(Nc1ccc(OC(F)(F)F)cc1)NC1CCC(Oc2ccc(C(=O)O)cc2)CC1 (centres unmarked) | 11.4% |
| Cc1ccc(C(=O)NCC(=O)OCC(=O)/C=C2\N(C)c3ccccc3C2(C)C)cc1C | -0.669% |
| CN1CCc2ccccc2C1C1CCNCC1 (centres unmarked) | 10.8% |
| COc1ccc(Br)cc1/C=C/C(=O)NCC(=O)O | 16.4% |
| O=C1CN=C(c2ccc(F)cc2)c2oc3ccccc3c2N1 | 9.77% |
| COCC(=O)N1CCc2ccc(NC(=O)c3ccccc3Cl)cc2C1 | 22.7% |
| Cc1ccc2c(c1)N(CC(=O)NC1CCCCCC1)C(=O)c1cccnc1O2 | 4.26% |
| O=C(c1cc(-c2ccccc2)on1)N1CCc2ccccc2C1 | 14% |
| Cc1ccc(-n2c(C)nn(Cc3ccc([N+](=O)[O-])cc3)c2=O)cc1 | 3.39% |
| CC1CC(C)CN(C(=O)c2cc3ccccc3o2)C1 (centres unmarked) | 9.02% |
| NNC(=O)c1ccc(COCC(F)(F)C(F)F)cc1 | 15.2% |
